Measurements taken from PMC4336329 (PLoS ONE, 2015).
Hit rate of the full screen: of about 310,000 compounds, about 14,000 (4.5%) showed an effect of 50% or more. Effects have a minus sign here. Some of the results follow.

Target: human ether-à-go-go-related gene (hERG) potassium channel (human, UniProt Q12809)
Assay: primary screen, population patch clamp on CHO cells stably expressing hERG
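Note: peak tail current of the secondary pulse compared with the same well before compound.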

Sequence of human ether-à-go-go-related gene (hERG) potassium channel (Q12809 whole entry, looked up): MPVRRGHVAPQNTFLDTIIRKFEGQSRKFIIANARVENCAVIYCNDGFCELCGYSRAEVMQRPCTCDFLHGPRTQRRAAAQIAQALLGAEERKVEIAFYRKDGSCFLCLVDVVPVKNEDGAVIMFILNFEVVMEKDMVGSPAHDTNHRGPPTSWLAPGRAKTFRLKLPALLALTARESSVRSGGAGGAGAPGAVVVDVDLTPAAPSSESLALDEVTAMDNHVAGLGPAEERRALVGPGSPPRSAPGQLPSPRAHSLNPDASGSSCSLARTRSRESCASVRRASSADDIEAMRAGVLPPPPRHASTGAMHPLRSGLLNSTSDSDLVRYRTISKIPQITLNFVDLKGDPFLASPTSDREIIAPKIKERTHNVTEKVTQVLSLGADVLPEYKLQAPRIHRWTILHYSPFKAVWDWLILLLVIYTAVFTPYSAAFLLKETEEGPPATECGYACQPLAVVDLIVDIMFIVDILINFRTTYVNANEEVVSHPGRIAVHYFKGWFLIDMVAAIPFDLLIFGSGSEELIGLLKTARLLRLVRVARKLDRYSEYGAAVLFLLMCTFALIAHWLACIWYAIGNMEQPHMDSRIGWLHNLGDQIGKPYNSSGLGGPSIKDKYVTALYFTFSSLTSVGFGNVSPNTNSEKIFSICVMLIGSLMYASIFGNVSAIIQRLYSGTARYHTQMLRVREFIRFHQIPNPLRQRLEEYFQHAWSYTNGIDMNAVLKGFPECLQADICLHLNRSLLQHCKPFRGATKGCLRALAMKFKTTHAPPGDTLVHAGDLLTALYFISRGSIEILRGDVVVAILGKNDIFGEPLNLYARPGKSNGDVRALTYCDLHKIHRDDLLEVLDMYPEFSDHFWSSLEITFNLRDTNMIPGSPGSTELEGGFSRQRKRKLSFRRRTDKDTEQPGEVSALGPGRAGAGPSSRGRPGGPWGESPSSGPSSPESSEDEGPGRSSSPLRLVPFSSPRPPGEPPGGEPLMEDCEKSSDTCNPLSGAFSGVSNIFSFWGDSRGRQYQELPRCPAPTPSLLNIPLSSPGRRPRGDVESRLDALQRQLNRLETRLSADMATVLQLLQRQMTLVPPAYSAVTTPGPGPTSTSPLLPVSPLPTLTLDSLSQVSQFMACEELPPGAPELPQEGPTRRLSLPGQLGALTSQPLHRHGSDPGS

Row | SMILES | hERG current change (%, negative = inhibition) at 10uM [%]
1 | CC(=O)c1cc(C)ccc1OC(=O)c1ccco1 | -2.77
2 | Cc1ccccc1-n1c(=O)n(Cc2ccc(C(=O)O)cc2)c(=O)c2[nH]cnc21 | 33.6
3 | O=c1c2ccccc2[nH]c(=S)n1CCC1=CCCCC1 | 17
4 | Cc1ccc(C2=NN(C(=O)CN3C(=O)c4ccccc4S3(=O)=O)C(c3ccco3)C2)cc1 (centres unmarked) | 14.1
5 | CCOC(=O)N1CCC(NC(=O)c2ccc3c(c2)ncn3C2CCCC2)CC1 | -1.01
6 | CC(C)CNC(=S)NNC(=O)c1ccco1 | -18.1
7 | CC1CCN(c2ccc([N+](=O)[O-])cc2C(=O)N2CCOCC2)CC1 | 3.86
8 | CC[C@@]1(c2ccccc2)C(=O)N(C(=O)OC)N1C(=O)OC | 33.5
9 | COc1ccc(N2C(=O)NC(=O)/C(=C/c3cccc(OC(=O)c4cccs4)c3)C2=O)cc1Cl | -2.57
10 | Cn1c(N)c(C(=O)COC(=O)CCCN2C(=O)c3ccccc3C2=O)c(=O)n(C)c1=O | -12.3
11 | COC(=O)c1cc(NC(=O)c2ccc(OC)cc2)c(=O)oc1C | 16.1
12 | O=C(NCCc1ccc(Cl)cc1)c1ccc2nc(N3CCOCC3)sc2c1 | 12.4
13 | CC(=O)c1cccn1S(=O)(=O)c1ccccc1 | 18.1
14 | Cc1c(C(=O)NCCCN2CCCC2=O)oc2ccccc12 | 7.96
15 | Cn1cc(CN2CCC(CO)(CCCc3ccccc3)CC2)c(-c2ccccc2)n1 | -66.3
16 | CCC(C)(C)NC(=O)CN(C(=O)c1snc(C(N)=O)c1N)c1ccc2c(c1)OCCO2 | 11.6
17 | NS(=O)(=O)c1ccc(NC(=O)COC(=O)C23CC4CC(CC(C4)C2)C3)cc1 | 12.5
18 | COc1cccc(C(=O)Oc2cc(N)n(S(=O)(=O)c3ccc(C)cc3)n2)c1OC | 0.237
19 | O=C(Nc1ccc(O)cc1)c1cccc(Oc2ccc([N+](=O)[O-])cc2)c1 | -37
20 | COc1ccccc1C(=O)OCC(=O)N1CCC(Cc2ccccc2)CC1 | -10.3
21 | NC(=O)c1ccc(NC(=O)COc2cccc3ccccc23)cc1 | 17.9
22 | Cn1cc(-c2cccc(Cl)c2)cc(C#N)c1=O | -17.5

Row | SMILES | hERG current change (%, negative = inhibition) at 10uM [%]
23 | Cc1cc(-c2nnc3n2N=C(c2ccc(F)cc2)CS3)n[nH]1 | -60.3
24 | CCn1c(CNC(=O)COc2ccc(C(C)C)cc2)nnc1SCC(=O)Nc1ccccc1 | -54.2
25 | N/C(=N\OC(=O)c1cc(Cl)ccc1Cl)c1ccncc1 | -6.36
26 | COc1nc(C)ccc1-c1noc(-c2ccco2)n1 | 10
27 | O=C(CCc1ccccc1Cl)Nc1ccc(S(=O)(=O)N2CCOCC2)cc1 | -4.49
28 | Cc1ccc(C2(C)NC(=O)N(CC(=O)N3CCN(S(=O)(=O)c4cccc(F)c4)CC3)C2=O)cc1 (centres unmarked) | -65.7
29 | CC1CC(C)CN(S(=O)(=O)c2cccc(C(=O)OCCN3CCCC3=O)c2)C1 (centres unmarked) | -17.6
30 | COc1ccc(-n2c(C)c3c(OC)cccc(=O)c3c2C)cc1 | -60.2
31 | Brc1ccc(-c2nc(-c3ccccc3)no2)o1 | 16.7
32 | COC(=O)c1ccc(CN2CCN(Cc3ccccc3)C(CCO)C2)cc1 (centres unmarked) | -16.5
33 | O=C(CSc1nnc(-c2ccccc2Cl)n1Cc1ccco1)Nc1ccc2c(c1)OCCO2 | -8.43
34 | CCn1cc(C(=O)NCCOC)c(=O)c2ccc(C)nc21 | 8.9
35 | CC(=O)n1nc(-c2ccco2)nc1SCc1ccccc1 | 0.418
36 | CC(=O)Nc1ccc(Nc2cc(C)nc3c(-c4ccccc4)cnn23)cc1 | 11.1
37 | C=CCOc1cccc(C2C(C(=O)c3ccco3)=C(O)C(=O)N2CCN(CC)CC)c1 (centres unmarked) | 2.38
38 | CC(C)CNC(=O)Cn1nc(C(F)(F)F)c2c1CCCC2 | 7.47
39 | CC(C)(C)c1ccc(C(=O)Nc2ccc3c(c2)C(=O)NC3=O)cc1 | 25.6
40 | O=C(Cn1c(=O)oc2cc(S(=O)(=O)NCc3ccccc3)ccc21)NCc1ccco1 | -1.18
41 | CCOC(=O)c1cnc2ccccc2c1NCCO | -34.8
42 | COc1cc([C@@H]2CC=C(C(=O)O)[C@H](c3ccccc3)N2S(=O)(=O)c2ccc(C)cc2)cc(OC)c1OC | 29.7
43 | COc1cc2cc(CN(Cc3ccc4c(c3)OCO4)C(=O)c3ccco3)c(=O)[nH]c2cc1OC | -7.93
44 | O=C(Nc1ccc(NC(=O)c2sc3ccccc3c2Cl)cc1Cl)c1ccco1 | 0.689
